{"source": "paper PMC3681697", "about": "(Molecular Biology of the Cell, 2013)", "proteins": {"B1": {"name": "mutant desmin E245D (natural protein)", "chain": "not shown"}}, "molecular_target": "the molecule itself", "assay": "negative-stain transmission electron microscopy"}
{"protein": "B1", "values": [{"measurement": "binding result", "result": "binds"}]}
